Patent US4816447A, “Anti-viral guanine compounds” (priority 1984, dated 1989)

Biological target: thymidine kinase, isolated from virus-infected HeLa cells (HSV1 virus) (Human herpesvirus 1, UniProt P0DTH5)
Details: 3 hour incubation, 37° C.

UniProt P0DTH5, sequence (P0DTH5 whole entry): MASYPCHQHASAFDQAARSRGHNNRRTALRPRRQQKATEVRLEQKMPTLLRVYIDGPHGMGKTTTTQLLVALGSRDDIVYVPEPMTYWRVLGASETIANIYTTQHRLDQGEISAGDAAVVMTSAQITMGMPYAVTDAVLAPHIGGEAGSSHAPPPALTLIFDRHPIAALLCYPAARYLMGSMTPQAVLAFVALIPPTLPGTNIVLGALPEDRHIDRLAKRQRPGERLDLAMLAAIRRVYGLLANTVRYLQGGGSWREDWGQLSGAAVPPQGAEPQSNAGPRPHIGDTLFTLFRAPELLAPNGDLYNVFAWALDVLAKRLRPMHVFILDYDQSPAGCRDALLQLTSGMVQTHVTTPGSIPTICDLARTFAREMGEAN

SMILES | converted to the monophosphate derivative
Nc1nc2c(ncn2COCC(O)CO)c(=O)[nH]1 (centres unmarked) [Compound of Formula I, 9-(2,3-Dihydroxy-1-propoxymethyl)guanine] | 90%
Nc1nc(O)c2ncn(COC(CO)CO)c2n1 [Compound of Formula II, 9-(1,3-Dihydroxy-2-propoxymethyl)guanine] | 95%
